Assay results taken from PubChem BioAssay (NCATS).
Inconclusive results, whose numbers are uncertain, are shown with a selection of clear calls. Potencies of inconclusive entries are left out as doubtful fits. Activity calls are given as the source filed them. Calls come from the whole dose curve; as a rule, active = well fitted inhibition curve with a large enough effect; inconclusive = small, poorly fitted or top-dose-only effect; inactive = no such curve, though single readings can be large or run the other way.

Experiment: qHTS Screen of the MIPE 4.0 Collection Against Ewings Sarcoma (RDES) (AID 1259252); note: nearly all actives have a fitted effect of over 35% in size;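 for viability (percent of control): 100% = DMSO-treated cells and 0% = medium-only wells without cells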
Conditions: RD-ES Ewing sarcoma viability, CellTiter-Glo, 48 h; series mostly up to 45.8 µM; viability (percent of control): at the top concentration
Procedure, shortened: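 Compound titrations go onto adherent log-phase cells 4 h after seeding, incubate 48 h at 37C, then CellTiter-Glo luminescence reports viability relative to DMSO and cell-free controls.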
Potency is the fitted concentration of half-maximal effect; tags give direction and shape of the fitted curve.

Row | SMILES | Potency | viability (percent of control)
1 | CC1(C)CC(=O)c2c(C(F)(F)F)nn(-c3ccc(C(N)=O)c(NC4CCC(O)CC4)c3)c2C1 (stereo not given) | inconclusive [inhibitor, full curve] | 
2 | COc1ccc2c(c1)c(CC(=O)OCC(=O)O)c(C)n2C(=O)c1ccc(Cl)cc1 |  | inactive: 116%
3 | Cc1cnc(Nc2cccc(CN3CCOCC3)c2)nc1Nc1cccc(S(=O)(=O)NC(C)(C)C)c1 | inconclusive [inhibitor, full curve] | 
4 | CN1c2ccccc2C(=O)N2CCc3c([nH]c4ccccc34)C21 (stereo not given) | inconclusive [inhibitor, single point] | 
5 | CC[C@H]1OC(=O)[C@H](C)[C@@H](O[C@H]2C[C@@](C)(OC)[C@@H](O)[C@H](C)O2)[C@H](C)[C@@H](O[C@@H]2O[C@@H](C)C[C@H](N(C)C)[C@@H]2O)[C@](C)(O)C[C@@H](C)C(=O)[C@H](C)[C@@H](O)[C@]1(C)O |  | inactive: 136%
6 | C[C@@H]1[C@H](C)CC[C@]2(C(=O)O)CC[C@]3(C)C(=CC[C@@H]4[C@@]5(C)CC[C@H](O)C(C)(C)[C@H]5CC[C@]43C)[C@@H]12 | active: 2700 nM | 
7 | NCC(=O)Nc1ccc(-n2nc(C(F)(F)F)cc2-c2ccc3c(ccc4ccccc43)c2)cc1 | active: 20900 nM | 
8 | COc1cc2c(cc1OC)C1CC(=O)C(CC(C)C)CN1CC2 (stereo not given) |  | inactive: 118%
9 | CC(C)(C)[C@H](NC(=O)c1ccc(N)c(Cl)c1)C(=O)N1CCC[C@@H]1C(=O)N[C@H](C#N)CC(=O)O |  | inactive: 112% [at 3.51 µM]
10 | O=C(O)C(=O)Nc1cccc(C2=NN=N[N]2)c1 |  | inactive: 115%
